# From the supplement of paper PMC3334620
# The full ranking holds about 33,000 sequences; the median of “E-score (-0.5 to 0.5)” is about -0.041, and the highest 2% start at about 0.37. This is one part of the list.
# Biological target: T1, Ecm22 (UniProt Q05958)
# T1 sequence: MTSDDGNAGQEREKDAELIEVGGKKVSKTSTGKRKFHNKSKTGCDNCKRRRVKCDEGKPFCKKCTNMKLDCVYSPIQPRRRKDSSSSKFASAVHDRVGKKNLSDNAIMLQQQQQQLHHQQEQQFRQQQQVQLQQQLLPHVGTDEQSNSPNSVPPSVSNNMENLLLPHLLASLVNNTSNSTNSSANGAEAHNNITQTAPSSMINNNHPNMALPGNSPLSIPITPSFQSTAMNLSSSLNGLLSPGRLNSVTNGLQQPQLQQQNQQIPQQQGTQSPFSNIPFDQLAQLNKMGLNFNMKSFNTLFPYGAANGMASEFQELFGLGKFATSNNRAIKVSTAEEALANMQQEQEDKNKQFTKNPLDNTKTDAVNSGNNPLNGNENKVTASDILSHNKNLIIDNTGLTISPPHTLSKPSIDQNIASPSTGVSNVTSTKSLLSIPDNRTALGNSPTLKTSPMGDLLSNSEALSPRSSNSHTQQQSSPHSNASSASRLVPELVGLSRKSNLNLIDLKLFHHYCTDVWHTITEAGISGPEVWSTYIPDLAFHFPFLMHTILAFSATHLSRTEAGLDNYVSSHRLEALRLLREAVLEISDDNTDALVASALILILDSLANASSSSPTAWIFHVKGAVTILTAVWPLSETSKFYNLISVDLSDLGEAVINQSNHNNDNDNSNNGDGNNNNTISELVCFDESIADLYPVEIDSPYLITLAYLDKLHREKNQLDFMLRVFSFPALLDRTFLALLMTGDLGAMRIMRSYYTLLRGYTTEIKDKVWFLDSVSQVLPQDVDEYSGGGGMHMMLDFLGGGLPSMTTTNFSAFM
# Test: PBM E-score (8-mer binding enrichment) (E-score (-0.5 to 0.5)); higher = stronger / more preferred TF binding; most listed sequences are background and not binding sites
# Conditions: protein concentration: 200 nM; construct: GST-full length
# Outline: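 GST-tagged yeast TFs (full-length or DNA-binding domain) were made by PURExpress in vitro transcription/translation and applied at about 100-200 nM to universal all-10-mer Agilent arrays. The arrays were made double-stranded by primer extension, on fresh or once-stripped slides. Bound protein was detected with fluorescent anti-GST, and scans were normalised with masliner. Each ungapped eight-base word, pooled with its reverse complement, received an E-score (modified Wilcoxon-Mann-Whitney statistic) from the Universal PBM Analysis Suite.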
row,Sequence,PBM E-score
1,ATCAATGC,-0.109
2,AACATCCA,-0.0685
3,GAAAAGGA,0.0368
4,ATAGCCAG,-0.174
5,CGACAAGC,0.0884
6,CAACATCC,-0.054
7,CGCTGTGC,-0.0668
8,CCGGGAGC,0.0914
9,CCAAAGTA,-0.0944
10,AGGCTGAG,-0.288
11,ACATCAAT,0.068
12,CAAACCAC,-0.0543
13,GAAGTTAA,0.0205
14,AAATACAT,-0.0825
15,ACAACTGC,-0.221
16,AGGGACCT,0.0608
17,ATGATCTG,-0.111
18,GATTCGGC,0.0943
19,ATCAAAGA,-0.261
20,CCCTAGAG,-0.266
21,GCCTATCC,-0.0429
22,GTAGCTCA,-0.155

row,Sequence,PBM E-score
1,TAACGACA,0.352
2,AGGATGGA,0.11
3,AGTACCCC,-0.0697
4,ATCGACAA,0.0783
5,ATTGCAAT,-0.0172
6,ACGTTCAA,0.188
7,GGATAACA,-0.195
8,AGCATGTC,-0.214
9,ATATTAGG,0.152
10,CTTGGGTA,-0.0194
11,ATCGGCGG,-0.0755
12,GACTAGAA,0.0381
13,CGGACCCC,0.109
14,ACATCAGC,-0.217
15,GACTCACC,-0.155
16,GCCACTCA,-0.196
17,TATAGGAA,0.068
18,CTTCGAAC,0.164
19,GTATCAGA,-0.00037
20,GGACTGCA,-0.254
21,CAGTTGTC,-0.0843
22,AGCCTGCG,-0.17

row,Sequence,PBM E-score
1,ATGTCAAT,-0.0163
2,GTCCCCAC,-0.159
3,GAGTGGTA,-0.0513
4,AATCGAAC,0.153
5,ACGTGCCT,-0.0501
6,ATTTGGGA,-0.156
7,AAACTAAT,0.127
8,ATCTTCGG,0.215
9,GTTACAAC,0.0475
10,ATCCCATC,-0.153
11,ACCACCAC,-0.174
12,AGCTAAGG,-0.402
13,AGAAATTC,0.049
14,AAATCGCA,0.0631
15,GCAGATTA,-0.119
16,CAGTGCCG,0.0566
17,AATTATTC,0.0451
18,CGGGGTAG,-0.0852
19,CAAGGTGG,-0.131
20,CACAACGA,0.255
21,CCTTGTGA,-0.154
22,CGCTGCCC,-0.162

row,Sequence,PBM E-score
1,CGGTTTCA,-0.0914
2,ACAATCCG,0.149
3,GGTAAAAC,0.111
4,GAGGCCTA,-0.0559
5,CTGAGCGA,0.267
6,AGGGCGCA,-0.247
7,ATGGAGGA,0.016
8,CAGGGTCA,-0.132
9,CACGTATC,0.132
10,CAGAGAGA,-0.046
11,GAAGGAGA,-0.0339
12,ATAACTGG,0.00042
13,AAATCCAA,-0.0614
14,CAAACCTG,-0.104
15,GGAGAACA,0.00184
16,CTAGCAAG,-0.186
17,CCGTTATA,0.111
18,ACACAGAG,-0.101
19,AGGACAAT,-0.239
20,GATAGCAA,-0.0305
